The results in this text go back to the RNAGym collection of RNA variant scans (doi:10.1093/nar/gkz1192).

The source gives no read counts; variants with many changes may rest on few reads.

The labels stand for the following.
B1: CPEB3 Ribozyme (parent)
chain: UAACAGGGGGCCACAGCAGAAGCGUUCACGUCGCAGCCCCUGUCAGAUUCUGGUGAAUCUGCGAAUUCUGCUGUAUAUCUC

The data set covers variants of B1. In words: self-cleavage, relative activity (ratio to wild type); higher = more cleavage; in vitro, sequencing. In a few lines:
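Relative activity was defined as the cleaved/total read fraction for a variant divided by the same fraction for the unmutated ribozyme. CPEB3 self-cleaving ribozyme libraries were made by rounds of error-prone PCR, barcoded, and transcribed in vitro with T7 RNA polymerase for 5 hours at 37°C, and cleavage ran through transcription plus a 15 min DNase I step before EDTA. Illumina sequencing of template-switched reverse transcripts gave the reads, and DNA sequencing mapped the barcodes. Averages come from three batches, using variants with at least 5 reads.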
For A5U A13G G46A, the self-cleavage is 0.48. The figure for A5G U41C A56G A64G is 0.05; for A5G U60A U69C it is 0.13. To A5G U49C A75U belongs 0.3; to A5G U43G U76G U80C, 0.32.

Take A5U A13G G53A U72C A75G: the self-cleavage worked out at 1.07. To A5G U41G A56G U66C U69G belongs 0.07; to A5G U31C U60C G70A U72C, 0.08; to A5G U51C U58C, 0.18. To A5G U51C U58A belongs 0.19; to A5U A13G G19C, 0.39. As to A5G G22A U60A U80A, the self-cleavage is 0.08. To A5G G9A A15G A18U A35G A77C U80A belongs 0.07; to A5G U51A A56G, 0.32; to A5G U69C U72C, 0.19.

As to A5G U69C U72A, the self-cleavage was found to be 0.66. For the variant A5U A13G U26C C32U U51G G63A, the self-cleavage was 0.04. As for A5G U49C U51A A64U, the self-cleavage stood at 0.14. The figure for A5U A13G A20G A56G is 0.46; for A5G U31C A56G U76C A77G it is 0.22. The figure for A5G U31A U72A is 0.27; for A5G U31A U72C it is 0.4; for A5G U48C U66G it is 0.16. The figure for A5G U31A U54C U60C U67A is 0.15. As for A5G G8C A21G G30C U72C, the self-cleavage is 0.08.

A5G U31A U48C A56C: the self-cleavage stood at 0.11. To A5G U58C U66C U72C belongs 0.19. The figure for A5G G61A A65G is 0.23; for A5G G9A U41C U54C it is 0.34; for A5U A15G A20G A75U it is 0.54. In the case of A5G G30U U31C U74C, the self-cleavage was found to be 0.47. The figure for A5G U51C U60A is 0.14; for A5G U26C U31C C40U U60G U69A it is 0.19; for A5G U31G A45G it is 0.82.

As to A5G U41G U54C U76A, the self-cleavage is 0.12. The figure for A5G G30A A35U U43C U67A is 0.62; for A5G U48C A56U U67A U74A U78C it is 0.12; for A5G G10A U26C C27U U54C U66C U69C it is 0.06.

For A5G U26C G53C A64G U66C U78C, the self-cleavage was 0.05. The figure for A5U A13G U25C U41A A56U G63C U66C is 0.09; for A5U A13G A28U U54A it is 0.9. To A5G G22A U58G belongs 0.14; to A5G U43A U69A U80C, 0.28; to A5U A15G A28U A57G C79G, 0.92. To A5G U43C A64U belongs 0.45; to A5G U43C A64C, 0.09. As for A5G G46A U72C U80C, the self-cleavage is 0.35. As for A5G U41C A65G, the self-cleavage amounted to 0.24.

For A5U A13G G52A U72C A75G, the self-cleavage was found to be 0.63.

For the variant A5G U49A A57G, the self-cleavage is 0.19. To A5G U31C A45U A65U belongs 0.1; to A5G U67A A77G, 0.71.

For the variant A5G U31C G36A A45G U76A, the self-cleavage amounted to 0.06. To A5G U31A C59A belongs 0.31; to A5U A13G A20U U25C U31C A56G A65G, 0.07; to A5G U48G U66A, 0. To A5G G30A G42U U58C U80C belongs 0.23. The figure for A5G U26C U78A is 0.59; for A5G U26C A35G U41G U80A it is 0.55; for A5U A15G A28G A35G U41A C44U it is 0.11. Turning to A5G U26C G36A U76C, the self-cleavage came to 0.09. On to A5G U31A G33C A35G, for which the self-cleavage is 0.12. To A5G G10A U25C U58G C79A belongs 0.24; to A5G U60A U80C, 0.57; to A5G U51G A57G U80C, 0.05. The figure for A5G U41C U69A U72A is 0.27; for A5G U31A C39G U69A it is 0.23. To A5G G33A A57U U66A A75G U80C belongs 0.12; to A5G U25C U26C U43A A56U U80A, 0.06; to A5U A13G U41A A56G, 0.33. As to A5G U25A A35U A45U, the self-cleavage came to 0.07. To A5G U41C U49C U54C belongs 0.18.

As for A5U A13U U41A A57G U72A, the self-cleavage came out at 0.22. For the variant A5G U31A A35U, the self-cleavage was 0.31. To A5G U26C G73U U76C belongs 0.72; to A5U A13G A15G U51A U54C U66C, 0.06; to A5U A13U U31C U41C U51C U72C, 0.7. With A5G G9A U51A G61A, the self-cleavage was found to be 0.23. To A5G G10A C23U A35G U43C A57G A65G belongs 0.17; to A5G U41C U54C U76C, 0.33; to A5G G19U U60C U78C, 0.32.

In the case of A5G G16C A18G, the self-cleavage stood at 0.67. The figure for A5G G9U C40U A65G is 0.04.
